# The other results are listed elsewhere or left out. Sequences were assembled here from the parent chain. Values near 0.05 are background.
# B1: TEV protease; numbered along this chain (parent)
# chain: MGESLFKGPRDYNPISSSICHLTNESDGHTTSLYGIGFGPFIITNKHLFRRNNGTLVVQSLHGVFKVKDTTTLQQHLVDGRDMIIIRMPKDFPPFPQKLKFREPQREERICLVTTNFQTKSMSSMVSDTSCTFPSGDGIFWKHWIQTKDGQCGSPLVSTRDGFIVGIHSASNFTNTNNYFTSVPKNFMELLTNQEAQQWVSGWRLNADSVLWGGHKVFMVKPEEPFQPVKEATQL
# Variants of: B1
# Experiment: raw area under fraction-flipped curve 0-4 h after induction (AUC4h, not background-subtracted), DNA-recorder readout of cleavage of the substrate (dimensionless); higher = more cleavage of the substrate by the protease variant
# Conditions: temperature: 34 °C; time window: 0-4 h after rhamnose induction
# Protocol: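 In vivo DNA recorder in E. coli TOP10(DE3) ΔrhaA at 34 °C. Each TEVp single-site mutant (parent TEVp 0) is paired with a single-site variant of the 7-mer TEVs (canonical ENLYFQ|S). The substrate sits between flexible linkers in a Bxb1-sfGFP-TEVs-SsrA fusion, so cleavage stabilises Bxb1 and speeds flipping of a recombination array, read by NGS. The value is the raw area under the fraction-flipped curve over 0-4 h after rhamnose induction (AUC4h), with ≥20 reads per time point. It is not background-subtracted; inactive controls average about 0.047.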
# 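Further: Bxb1 expression induced with 0.2% (w/v) L-rhamnose at OD600 near 0.5, cultures sampled hourly, flipped fraction per protease–substrate barcode pair counted by paired-end Illumina sequencing.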
Variant,area with substrate ENLYFAS,area with substrate ENLYFES,area with substrate ENLYFFS,area with substrate ENLYFHS,area with substrate ENLYFIS,area with substrate ENLYFKS,area with substrate ENLYFNS,area with substrate ENLYFPS,area with substrate ENLYFRS,area with substrate ENLYFSS,area with substrate ENLYFTS,area with substrate ENLYFVS,area with substrate ENLYFWS,area with substrate ENLYFCS,area with substrate ENLYFDS,area with substrate ENLYFMS,area with substrate ENLYFGS,area with substrate ENLYFLS,area with substrate ENLYFYS
MGESLFKGPRDYNPISSSICHLTNESDGHTTSLYGIGFGPFIITNKHLFRRNNGTLVVQSLHGVFKVKDTTTLQQHLVDGRDMIIIRMPKDFPPFPQKLKFREPQREERICLVTTNFQTKSMSSMGSDTSCTFPSGDGIFWKHWIQTKDGQCGSPLVSTRDGFIVGIHSASNFTNTNNYFTSVPKNFMELLTNQEAQQWVSGWRLNADSVLWGGHKVFMVKPEEPFQPVKEATQL [V126G],0.0603,0.0611,0.0694,0.0628,0.0139,0.0644,0.0636,0.0678,0.067,0.0539,0.049,0.055,0.0488,–,–,–,–,–,–
MGESLFKGPRDYNPISSSICHLTNESDGHTTSLYGIGFGPFIITNKHLFRRNNGTLVVQSLHGVFKVKDTTTLQQHLVDGRDMIIIRMPKDFPPFPQKLKFREPQREERICLVTTNFQTKSMSSMVSDTSCTFPSGDQIFWKHWIQTKDGQCGSPLVSTRDGFIVGIHSASNFTNTNNYFTSVPKNFMELLTNQEAQQWVSGWRLNADSVLWGGHKVFMVKPEEPFQPVKEATQL [G138Q],0.0216,–,0.0396,–,0.0496,–,0.0749,–,0.0444,–,–,0.0537,–,0.0619,0.0372,0.0525,–,–,–
MGESLFKGPRDYNPISSSICHLTNESDGHTTSLYGIGFGPFIITNKHLFRRNNGTLVVQSLHGVFKVKDTTTLQQHLVDGRDMIIIRMPKDFPPFPQKLKFREPQREERICLVTTNFQTKSMSSMVSDTSCTFLSGDGIFWKHWIQTKDGQCGSPLVSTRDGFIVGIHSASNFTNTNNYFTSVPKNFMELLTNQEAQQWVSGWRLNADSVLWGGHKVFMVKPEEPFQPVKEATQL [P134L],0.0727,0.0477,0.0801,–,0.0512,–,–,0.0589,0.056,–,0.0767,–,0.05,0.0611,–,0.0638,0.0552,0.0453,0.0539
MGESLFKGPRDYNPISSSICHLTNESDGHTTSLYGIGFGPFIITNKHLFRRNNGTLVVQSLHGVFKVKDTTTLQQHLVDGRDMIIIRMPKDFPPFPQKLKFREPQREERICLVTTNFQTKSMSSMVSDTSCTFESGDGIFWKHWIQTKDGQCGSPLVSTRDGFIVGIHSASNFTNTNNYFTSVPKNFMELLTNQEAQQWVSGWRLNADSVLWGGHKVFMVKPEEPFQPVKEATQL [P134E],0.0661,0.0567,0.0621,–,0.0609,0.0768,0.0615,0.0562,–,–,–,0.0651,0.0591,0.0561,0.059,0.0591,0.067,0.0563,–
MGESLFKGPRDYNPISSSICHLTNESDGHTTSLYGIGFGPFIITNKHLFRRNNGTLVVQSLHGVFKVKDTTTLQQHLVDGRDMIIIRMPKDFPPFPQKLKFREPQREERICLVTTNFQTKSMTSMVSDTSCTFPSGDGIFWKHWIQTKDGQCGSPLVSTRDGFIVGIHSASNFTNTNNYFTSVPKNFMELLTNQEAQQWVSGWRLNADSVLWGGHKVFMVKPEEPFQPVKEATQL [S123T],0.0489,0.0532,–,–,0.0776,0.0569,0.071,0.0608,–,0.0634,–,–,0.041,0.0572,–,0.0576,0.0738,–,0.0661
MGESLFKGPRDYNPISSSICHLTNESDGHTTSLYGIGFGPFIITNKHLFRRNNGTLVVQSLHGVFKVKDTTTLQQHLVDGRDMIIIRMPKDFPPFPQKLKFREPQREERICLVTTNFGTKSMSSMVSDTSCTFPSGDGIFWKHWIQTKDGQCGSPLVSTRDGFIVGIHSASNFTNTNNYFTSVPKNFMELLTNQEAQQWVSGWRLNADSVLWGGHKVFMVKPEEPFQPVKEATQL [Q118G],0.0608,0.0678,0.0677,–,0.0586,0.0573,0.0706,0.0632,–,–,0.0561,0.0846,–,0.0669,–,0.0841,–,0.0675,–
MGESLFKGPRDYNPISSSICHLTNESDGHTTSLYGIGFGPFIITNKHLFRRNNGTLVVQSLHGVFKVKDTTTLQQHLVDGRDMIIIRMPKDFPPFPQKLKFREPQREERICLVTTNFATKSMSSMVSDTSCTFPSGDGIFWKHWIQTKDGQCGSPLVSTRDGFIVGIHSASNFTNTNNYFTSVPKNFMELLTNQEAQQWVSGWRLNADSVLWGGHKVFMVKPEEPFQPVKEATQL [Q118A],0.0499,0.0631,0.0573,0.0627,0.0607,0.0864,0.0738,0.0609,0.0608,0.0707,–,0.0942,0.0477,0.0601,0.0505,0.0396,0.0669,0.0655,–
MGESLFKGPRDYNPISSSICHLTNESDGHTTSLYGIGFGPFIITNKHLFRRNNGTLVVQSLHGVFKVKDTTTLQQHLVDGRDMIIIRMPKDFPPFPQKLKFREPQREERICLVTTNFFTKSMSSMVSDTSCTFPSGDGIFWKHWIQTKDGQCGSPLVSTRDGFIVGIHSASNFTNTNNYFTSVPKNFMELLTNQEAQQWVSGWRLNADSVLWGGHKVFMVKPEEPFQPVKEATQL [Q118F],0.0623,0.0675,0.0741,–,0.0572,0.0546,0.0539,–,0.0596,0.0613,0.0544,–,0.0477,0.0686,–,0.0572,–,0.0545,0.0665
MGESLFKGPRDYNPISSSICHLTNESDGHTTSLYGIGFGPFIITNKHLFRRNNGTLVVQSLHGVFKVKDTTTLQQHLVDGRDMIIIRMPKDFPPFPQKLKFREPQREERICLVTTNFQTKSMSSMVSHTSCTFPSGDGIFWKHWIQTKDGQCGSPLVSTRDGFIVGIHSASNFTNTNNYFTSVPKNFMELLTNQEAQQWVSGWRLNADSVLWGGHKVFMVKPEEPFQPVKEATQL [D128H],0.0531,–,0.101,0.0648,0.0461,0.0408,0.0695,0.0614,0.061,–,0.0531,–,0.06,0.0544,0.0633,0.0693,–,–,0.0538
